Laboratory results as given in the RNAGym collection of RNA variant scans (doi:10.1073/pnas.2313332121).
This sample is rich in variants without activity.

B1: TPR 5TU (parent)
chain: GGAUCUUCUCGAUCUAACAAAAAAGACAAAUCUGCCACAAAGCUUGAGAGCAUCUUCGGAUGCAGAGGCGGCAGCCUUCGGUGGCGCGAUAGCGCCAACGUUCUCAACUAUGACACGCAAAACGCGUGCUCCGUUGAAUGGAGUUUAUCAUG

Variants of: B1
Experiment: polymerase ribozyme fitness, log enrichment relative to wild type (log ratio); higher = more active; in vitro selection for triplet polymerase activity
Outline: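 A heterodimeric triplet polymerase ribozyme had each of its subunits mutagenized by PCR into a library, which was transcribed. One round of in vitro selection, done in triplicate, annealed each library with a biotinylated primer, its partner subunit and triplets, then incubated it frozen at −7 °C before gel excision of extended constructs, streptavidin-bead capture and RT-PCR. Fitness is the logarithm of genotype enrichment relative to wild-type enrichment, based on Illumina sequencing of inputs and outputs and inverse-variance-weighted replicate averages. A base-2 logarithm is used, and genotypes were kept only with ≥10 input reads and ≥1 read per output.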

| Variant | polymerase ribozyme fitness (log ratio) |
| --- | --- |
| GGAUCUUCUCAAUCUAACAAAAAAGACAAAUCUGCCACAAAGCUUGAGAGCAUAUUCGGAUGCAGAGGCGGCAGCCUUCGGUGGCGCGAUAGCGCCAACGUUCUCAACUAUGACACGCAAAACGCGUGCUCCGUUGAAUGGAGUUUAUCAUG [G11A C54A] | -2.47 |
| GGAUCUUCUCAAUCUAACAAAAAAGACAAAUCUGCCACAGAGCUUGAGAGCAUCUUCGGAUGCAGAGGCGGCAACCUUCGGUGGCGCGCUAGCGGCAACGUUCUCAACUAUGACACGCACAACGCGUGCUCCGUUGAAUGAAGUUUAUCAUG [G11A A40G G74A A89C C95G A120C G141A] | ≤ -4.2 |
| GGAUCUUCUCAAUCUAACAAAAAAGACAAAUCUGCCACAAAGCUUGAGAGCAUCUUCGGAUGCAGAGGCGGCGGCCUUCGGUGGCGCGAUAACGCCAACGUUCUCAACUAUGACACGCAAGACGCGUGCUCCGUUGAAUGGAGUUUAUCAUG [G11A A73G G92A A121G] | ≤ -4.2 |
| GGAUCUUCUCAAUCUAACAAAAAAGACAAAUCUGCCACAAAGCUUGAGAGCAUUUUCGGAUGCAGAGGCGGCAGCCUUCGGUGGCGGGAUAGUGCCAACGUUCUCAACUAUGACACGCAAAACGAGUGCUCCAUUGAAUGGCGUUUAUCAUG [G11A C54U C87G C93U C125A G133A A142C] | ≤ -4.2 |
| GGAUCUUCUCAAUCUAACAAAAAAGACAAAUCUGCCACAAAGCUUGAGAGGAUCUUCGGAUGCAGAGGCGGCAGCCUUCGGUGGCGGGUUAGCGCCAACGUUCUCAACUAUGACACGCAAAACGAGUGCUCCGUGGAAUGGAGUUUAUCAUG [G11A C51G C87G A89U C125A U135G] | ≤ -4.2 |
| GGAUCUUCUCAAUCUAACAAAAAAGACAAAUCUGCCACAAAGCUUGAGAGCUUCUUAGGAUGCAGAGGCGGCAGCCUGCGGUGGAGCGAUAUCCCCAACGUUCUCAACUAUGACACGCUAAACGCGUCCUCCGUUGAAUGGAGUAUAUCAUG [G11A A52U C57A U78G C85A G92U G94C A119U G128C U145A] | ≤ -4.2 |
| GGAUCUUCUCAAUCUAACAAAAAAGACAAAUCUGCCACAAAGCUUGAGAGCAUGUUCGGAUGCAGAGGCGGCGGCCUUAGGGGGCGUGAUAGCGCCAACGUUCUCAACUAUGACACGCAAAUCGCGUGCUCCGUUGAAUGCAGUUUAUCAUG [G11A C54G A73G C79A U82G C87U A122U G141C] | ≤ -4.2 |
| GGAUCUUCUCAAUCUAACAAAAAAGACAAAUCUGCCACAAGGCUAGAGAGGAUCUUCGGCUGCAGAGGCGGCAGCCUUCGGUGGCACAAUAGCGCCAACGUUCUCAACUAUGACACGCAAAACGUGUGCUCCGUUGAAUGGAGUUUAUCAUG [G11A A41G U45A C51G A60C G86A G88A C125U] | ≤ -4.2 |
| GGAUCUUCUCAAUCUAACAAAAAAGACAAAUCUGCCACAAAGCUUGAGAGCAUCUUCGGAUGCAGAGGCGGCAGCCUUCGGUGGCGCGAUAGCGCCAACGUUCUCAACUGUGACACGCAAAACGCGUGCUCCGUUGAAUGGAGUUUAUCAUG [G11A A110G] | -3.76 |
| GGAUCUUCUCAAUAUAACAAAAAAGACAAAUCUGCCACAAACCUUGAGAGCAUCUUCCGAUGCAGAGGCGGCAGCCUUCGGUGGCGCGAUGGCGCCAACGUUCUCACCUAUGGCACGCAAAACGCGUGCUCCGUUGAAUGGAGUUUAUCAUG [G11A C14A G42C G58C A91G A107C A113G] | ≤ -4.2 |
| GGAUCUUCUCAAUCUAACAAAAAAGACAAAUAUGCCACAAAGCUUGAGAGCAUCUUCGGAUGCAGAGGCGGCAGCCUUCGGUGGCGCGAUAGUGCCAACGUUCUCAACUAUGACACGCAAAACGCGUGCUCCGUUGAAUGGAGUUUAUCAUG [G11A C32A C93U] | ≤ -4.2 |
| GGAUCUUCUCAAUCUAACAAAAAAGACAAAUCUGCCACAAAGCUUGAGAGCAUCUUCGGAUGCAGAGGCGGCAGCCUUCGGUGGCGCGAUGGCGCCAACGUUCUCAACUAUGAUACGCAAAACGCGUGCUCCGUUGAAUGGAGCUUAUCAUG [G11A A91G C114U U144C] | -4.14 |
| GGAUCUUCUCAAUUUAACAAAAAAGACAAAUCGGCCACAAAGCAUGAGAGCAUCUUCGGAUGCAGAGGAGGCAGCCUUAGGUGGUGCGAUAGCGCCUACGUUCUCAACUAUGACACGCAAAACGCGUGCUCCGUUGAAUGGAGUUUAUCAUG [G11A C14U U33G U44A C69A C79A C85U A97U] | ≤ -4.2 |
| GGAUCUUCUCAAUCUAACAAAAAAGACAAAUCUGCCACAGAGCUUGAGAGCAUGUUCGGAUGCAGAGGCGGCAACCUUCGGUCGCGCGAUAGCGCCAACGUUCUGAACUAUGACACGCAAAACGCGUGCUCCGUUGAAUGGAGUUUAUCAUG [G11A A40G C54G G74A G83C C105G] | ≤ -4.2 |
| GGAUCUUCUCAAUCUAACAAAAAAGACAAAUCUGCCACAAAGCUUGAGAGUAUCUUCGGAUGCAGAGGCGGCAGCCUUCGGUGAGGCGAUAGCGCCGACGUUCUCAACUAUGAGACGCAGAACGUGUGCUGCGUUGAAUGGAGUUUAUCAUG [G11A C51U G84A C85G A97G C114G A120G C125U C131G] | ≤ -4.2 |
| GGAUCUUCUCAAUCUAACAAAAAAGAAAAAUCUGCCACAAAGCUUGAGAGCAUCUUCGGAUGCAGAGGCGGCCACCUUCGAUGGCGCGUUAGGGCCAACGUUCUCAACUAUGACACGCAAAACGCUUGCUCCGUUGAAUGGAGUUUAUCAUG [G11A C27A A73C G74A G81A A89U C93G G126U] | ≤ -4.2 |
| GGAUCUUCUCAAUCUAACAAAAAAGACAAAUCUGCCACAAAGCUUGAGAGCAUCUUCGGAUGCAGAGGCGGCAGCCUUCGGUGGCGCGAUCGCGCCAACGUUCUCAACUAUGACACGCAAAACGCGUGCUCCGUUGAAUGGAGUUUAUCAUG [G11A A91C] | ≤ -4.2 |
| GGAUCUUCUCAAUAUAACAAAAAAGACAAAUCUGCCACAGAGCUUGAGAGCAUCUUCGGAUGCAGAGGCGGCAGCCUUAGGUGGCGCGAUAGAGCCAACGUUCUCAACUAUGACACGCAAAACACGUGCUCCGUUGAAUGGAGUUUAUCAUG [G11A C14A A40G C79A C93A G124A] | ≤ -4.2 |
| GGAUCUUCUCAAUCUAACAAAAAAGACAAAUCUGCCACAAAGCUUGAGCGCAUCUUCGGAUGCAGAGGCGGCAGCCUUCGGUGGCGCGAUAGCGCCAACGUUCUCAACUAUGACACGCAAAACGCGUGCUCCGUUGAAUGGAGUUUAUCAUG [G11A A49C] | ≤ -4.2 |
